Measured values from PubChem BioAssay AID662 (National Center for Advancing Translational Sciences (NCATS), 2007).
Hit rate of the full screen: of about 71,000 compounds, about 1,800 (2.5%) were called active. Inconclusive results, whose numbers are uncertain, are shown with a selection of clear calls. The call rests on the fitted dose curve; in most records, active means well fitted activation curve with a large enough effect in the signal ratio, with a control signal flat (not every such curve was filed as active); inconclusive means small, poorly fitted or top-dose-only effect, or effect the other way, or a change in a side signal; inactive means flat fitted curve, though single readings scatter; the % refers to the signal ratio. Where the call is inconclusive, the potency comes from a doubtful curve fit.

Assay: Cell signaling CRE-BLA (Fsk stim); on activity change, negative = inhibition: % of control where 0% means no effect
Conditions: CHO CRE-bla reporter (cAMP response element driving beta-lactamase), forskolin EC10, beta-lactamase ratio; activity change, negative = inhibition: at 38.2 µM (top of the series) unless noted
Outline: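 The 460nm/530nm emission ratio after CCF4 loading defined %Activity, from which AC50 values were obtained. CRE-bla CHO cells received compound dilution series together with an EC10 level of NKH 477 for 3 hours at 37 degrees Celsius.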
Potency means the concentration at half of the fitted maximal effect; tags describe the fitted curve by direction and shape.

Row | Compound | Potency | activity change, negative = inhibition
1 | Cc1nc(N2C(=O)C(=O)/C(=C(/O)c3ccccc3)C2c2ccco2)sc1C (centres undefined) | inconclusive: 25.1 µM [rising, single point] | 
2 | CCOC(=O)Cc1nnc(NC(=O)CSc2nnc3c4ccccc4n(C)c3n2)s1 | active: 3.16 µM | 
3 | Cc1nn(-c2ccccc2)c2sc(C(=O)NC3CCCCC3)cc12 | inconclusive: 3.16 µM [rising, partial curve] | 
4 | Cn1nc(-c2ccc(Cl)cc2)c2cc(C(=O)NCC3CCCO3)sc21 (centres undefined) | active: 5.01 µM | 
5 | Cc1ccc(N=C2SCCCN2C(=O)c2ccco2)cc1Cl |  | inconclusive: -2.03%
6 | COc1cccc(-c2nnc(NC(=O)c3ccc(S(=O)(=O)N4CCOCC4)cc3)o2)c1 | inactive | 
7 | c1nc(N2CCNCC2)c2cc(-c3ccc4c(c3)OCO4)ccc2n1 |  | inconclusive: 25.7%
8 | CCCCC[C@H](O)/C=C\[C@H]1[C@H](C/C=C\CCCC(=O)O)[C@@H](O)C[C@H]1O (tested in a mixture with another compound) |  | inconclusive: 23.9% [at 17.1 µM]
9 | COC(=O)c1c(C)nc(C)c2c(=O)oc3ccccc3c12 | inconclusive: 10 µM [rising, partial curve] | 
10 | CCOC(=O)N1CCC(Nc2c(Nc3ccc(C)c(C)c3)c(=O)c2=O)CC1 |  | inconclusive: -31.9%
11 | c1ccc(CC2CCN(c3nc4ccccc4n4nnnc34)CC2)cc1 |  | inconclusive: 12.4%
12 | Cc1cccc(-n2c(N)cc(=O)nc2SCC(=O)Nc2ccccc2)c1 |  | inconclusive: 20%
13 | O=c1c2c(nc3nc(COc4ccccc4)[nH]n13)CCC2 | inconclusive: 20 µM [rising, partial curve] | 
14 | Cc1c(C(=O)OCCOc2ccccc2)[nH]c2c1C(=O)CCC2 |  | inconclusive: -19.9%
15 | Cc1nn(Cc2ccccc2Cl)c(C)c1NC(=O)C1C2CCC(O2)C1C(=O)O (centres undefined) |  | inconclusive: 14.4%
16 | O=C1CN(C(=O)CC2c3ccccc3-c3ccccc32)CC(=O)N1 |  | inconclusive: 1.13%
17 | C=CCn1cc(C(=O)OC)c(=O)c2cc(S(=O)(=O)N3CCC(C)CC3)ccc21 |  | inconclusive: 3.73%
18 | O=C1C2CC=C(Cl)CC2C(=O)N1CN(Cc1ccco1)CN1C(=O)C2CC=C(Cl)CC2C1=O (centres undefined) |  | inconclusive: 6.81% [at 7.6 µM]
19 | COc1ccccc1C(=O)Nc1cc(-c2nn3c(C)nnc3s2)ccc1C |  | inconclusive: 23.8%
20 | COc1ccc(S(=O)(=O)C(C#N)c2nc3ccccc3nc2N2CCC(C)CC2)cc1 (centres undefined) |  | inconclusive: -21.2% [fluorescent]
21 | CCCn1c(-c2ccc(F)cc2)nc2c(NCCN3CCOCC3)nc(C)nc21 | inactive | 
22 | Nc1ncnc2c1c(-c1ccc(Oc3ccccc3)cc1)cn2C1CCCC1 |  | inconclusive: -23.2%
23 | Cc1nc2c3c(-c4ccccc4)c(-c4ccccc4)oc3ncn2n1 |  | inconclusive: 13.9%
24 | Cc1cc(N2CCN(C)CC2)nc(N2CCOCC2)n1 | inactive | 
25 | COc1ccccc1-c1cc(Nc2ccc(F)cc2)ncn1 |  | inconclusive: -22.6%
26 | CN(C(=O)c1cc2sccc2n1C)C1CCCCC1 | inactive | 
27 | CCC(CC)C(=O)NCCc1ccc(OC)c(OC)c1 | inactive | 

Row | Compound | Potency | activity change, negative = inhibition
28 | O=C(O)CCC(=O)N1CCN(c2nc3ccccc3s2)CC1 |  | inconclusive: -10.3%
29 | CCC(O)OC(O)CC (centres undefined) | inactive | 
30 | CCCS(=O)(=O)N1CCCC(C(=O)N2CCOCC2)C1 (centres undefined) |  | inconclusive: 11%
31 | CCc1nn2c(N3CCOCC3)cc(C)nc2c1-c1ccc(F)cc1 | inconclusive: 3.16 µM [rising, single point] | 
32 | Cc1[nH]nc2nc(SCC(=O)NCC3CCCO3)n(-c3ccc(Br)cc3)c(=N)c12 (centres undefined) | active: 7.94 µM | 
33 | N#Cc1ccccc1NC(=O)CSc1nnc(-c2ccccc2)n1-c1ccccc1 | inconclusive: 3.16 µM [falling, single point] | 
34 | COC(=O)CCSCc1cn2cc(Cl)ccc2n1 | inconclusive: 12.6 µM [falling, partial curve] | 
35 | CCC(=O)Oc1ccc(C2N(C(=O)CC)CCN2S(=O)(=O)c2ccc(C)cc2)cc1OC (centres undefined) | inconclusive: 10 µM [falling, partial curve] | 
36 | CCCCCCn1c(CN2CCC(C)CC2)nc2c1c(=O)n(C)c(=O)n2C | inactive | 
37 | CCOC(=O)N1CCC(NS(=O)(=O)c2ccc3c(c2)C(C)(C)C(=O)N3C)CC1 |  | inconclusive: 13.6%
38 | Cc1ccc(-c2noc(C3CCN(S(=O)(=O)c4ccc5c(c4)OCCO5)CC3)n2)o1 |  | inconclusive: 17.7%
39 | Cc1cc(=O)[nH]c(-n2nc(C)cc2C)n1 |  | inconclusive: 33.3%
40 | COc1ccccc1NC(=O)N1CCN(c2ncccn2)CC1 | inactive | 
41 | CCOC(=O)CNC(=O)Cn1cnc2c(nnn2-c2cccc(Cl)c2)c1=O | inconclusive: 0.794 µM [rising, full curve] | 
42 | CCN(CCCNC(=O)C1CCN(S(=O)(=O)c2cnc[nH]2)CC1)c1cccc(C)c1 | inactive | 
43 | CCCCCCN(C(=O)CCCCCN1C(=O)NC(c2ccccc2-c2ccccc2)C(C(=O)OCc2ccccc2)=C1C)C(C(=O)NCCCC)c1ccc(OCC(=O)OC)c(C(=O)OC)c1 (centres undefined) |  | inconclusive: -0.732%
44 | O=S(=O)(c1cccs1)N1CCC(Cc2ccccc2)CC1 | inactive | 
45 | COc1ccccc1CNc1ncnc2ccc(-c3cccc(C#N)c3)cc12 | inconclusive: 2.51 µM [rising, full curve, poor fit] | 
46 | CCn1c(SCC(=O)Nc2ccc3c(c2)OCCO3)nnc1-c1ccco1 | inactive | 
47 | CCOc1ccccc1-c1nc(C(N)=O)c2[nH]c(=O)n(-c3ccccc3)c2n1 |  | inconclusive: 17.7%
48 | N#Cc1c(N)nc2c(c1-c1ccncc1)CCCCCC2 |  | inconclusive: 4.97%
49 | CCCCn1c(SCC(=O)Nc2nnc(CC)s2)nc2c1c(=O)n(C)c(=O)n2C | inactive | 
50 | CC(C)OCCCN1C(=O)c2[nH]nc(-c3ccccc3O)c2C1c1cccc(Cl)c1 (centres undefined) |  | inconclusive: 5.07% [cytotoxic]
51 | Cc1nnc2ccc(Oc3ccc(-c4ccccc4)cc3)nn12 | active: 0.794 µM | 
52 | c1cn(-c2ncnc3sc4c(c23)CCCC4)cn1 |  | inconclusive: 31.7% [at 7.6 µM]
53 | COc1ccc(N2CCN(c3nc4c(c(=O)n(C)c(=O)n4C)n3Cc3ccccc3)CC2)cc1 |  | inconclusive: 21.5%
54 | COCCn1c(SCC(=O)N2CCC(C)CC2)nc2ccccc2c1=O | inactive | 

Row | Compound | Potency | activity change, negative = inhibition
55 | O=C(C1CC1)N1CCc2cc(S(=O)(=O)N3CCCc4ccccc43)ccc21 |  | inconclusive: 13.5%
56 | N#CC(C#N)=c1ccc2c(c1)NC1(CCCCC1)N=2 |  | inconclusive: -15.6%
57 | COC(=O)c1ccc(C(NC(=O)OCc2ccccc2)/C(=C/[C@@H](C)C(=O)NCC2CC2)c2cccnc2)cc1 (some centres undefined) | inactive | 
58 | COc1ccc(-c2cc(C(F)(F)F)nc(N3CCN(Cc4ccccc4)CC3)n2)cc1OC | inconclusive: 5.01 µM [rising, partial curve] | 
59 | CC(=O)Nc1ccc(S(=O)(=O)Nc2cc(C)c(-n3nc4ccccc4n3)cc2O)cc1 | inconclusive: 6.31 µM [rising, partial curve] | 
60 | CCc1nc(NCCc2ccccn2)c2nnn(Cc3ccccc3F)c2n1 | inconclusive: 5.01 µM [rising, full curve, poor fit] | 
61 | COc1cc(OC)c(OC)cc1CNCCNC(=O)c1nonc1N | inconclusive: 20 µM [falling, single point] | 
62 | COCCNC(=O)COC(=O)CSCc1nc2ccccc2s1 |  | inconclusive: -11.1%
63 | CCOC(=O)C1=C(C)N(c2ccccc2)C(=O)C1CC(=O)O (centres undefined) |  | inconclusive: -21.5%
64 | O=C(CSc1ncnc2sc3c(c12)CCCC3)c1ccco1 | inconclusive: 12.6 µM [rising, single point] | 
65 | CC1CN(Cc2nc3c(c(=O)[nH]c(=O)n3C)n2CCCc2ccccc2)CC(C)O1 (centres undefined) |  | inconclusive: 12.2%
66 | COc1ccc(C(=O)N2CCc3cc(OC)c(OC)cc3C2)cc1OC | inconclusive: 10 µM [rising, partial curve] | 
67 | COC(=O)[C@@]1(Cc2ccccc2)[C@H]2c3cc(C(=O)N(C)C)n(Cc4ccccc4)c3C[C@H]2CN1C(=O)c1ccccc1 | inactive | 
68 | Cn1c(C(=O)NCc2ccc3c(c2)OCO3)cc2sccc21 | inactive | 
69 | CC(=O)N(CCCc1ccc(C(C)(C)C)cc1)CCCN(C)C | inactive | 
70 | CCOC(=O)c1c(C)[nH]c(C)c1C(=O)COc1ccc(NC(=O)c2ccco2)cc1 | inconclusive: 12.6 µM [rising, single point] | 
71 | Cc1ccc(N(CC(=O)NC2CCCC2)C(=O)CCCC(=O)Nc2ccccn2)cc1C | inactive | 
72 | CCc1ccccc1NS(=O)(=O)c1ccc2[nH]cc(C(=O)NCc3ccco3)c(=O)c2c1 | inconclusive: 0.0631 µM [falling, full curve] | 
73 | CCCc1cc(C(=O)N2CCN(C(c3ccccc3)c3ccccc3)CC2)no1 |  | inconclusive: -13.5%
74 | CCOC(=O)c1ccc(N2C(=O)c3n[nH]c(C)c3C2c2ccc(OC)cc2)cc1 (centres undefined) | inconclusive: 10 µM [rising, single point] | 
75 | CC(C)c1cccc2nc3c(c([Si](C)(C)C)c12)Cn1c-3cccc1=O | active: 12.6 µM | 
76 | CCCCN(CC)CCCNC(=O)CC1Oc2ccccc2NC1=O (centres undefined) | inconclusive: 3.16 µM [rising, single point] | 
77 | O=C(CCCSc1nc(-c2ccco2)cc(C(F)(F)F)n1)Nc1ccc2c(c1)OCO2 | inconclusive: 25.1 µM [rising, single point] | 
78 | O=C(N1CCCCCC1)N1CCN(C(=O)N2CCCCC2)CC1 |  | inconclusive: 6.44%
79 | CC(C)n1c(=S)[nH]c2c1c(=O)[nH]c(=O)n2C | inconclusive: 3.16 µM [rising, partial curve] | 
